# Among all 350,000 compounds or so, about 9,900 (2.8%) were called active. The shares of active, inactive and inconclusive entries below differ from those in the screen. Calls come from the whole dose curve; as a rule, active = well fitted activation curve with a large enough effect; inconclusive = small, poorly fitted or top-dose-only effect; inactive = no such curve, though single readings can be large or run the other way. Potencies of inconclusive entries are left out as doubtful fits.
# Assay: A quantitative high throughput screen for small molecules that induce DNA re-replication in MCF 10a normal breast cells. For activity, positive = re-replication: % of control where 0% means no effect. Note: nearly all actives have a fitted effect of over 50% in size.
# Conditions: MCF 10A DNA re-replication, Hoechst nuclear intensity, 48 h; activity, positive = re-replication: at 46.1 µM (top of the series)
# Potency is the fitted concentration of half-maximal effect; tags give direction and shape of the fitted curve.
SMILES,Potency,"activity, positive = re-replication"
O=C(c1cc2ccccc2[nH]1)N1O[C@@H]2C=C[C@H]1C2,"inconclusive [activator, full curve, poor fit]",
Cc1sc2ncnc(Sc3nnnn3-c3ccc(Cl)cc3)c2c1C,"inconclusive [activator, single point]",
COc1cc(NC(=O)c2cc(OC)c(OC)c(OC)c2)ccc1NC(=O)c1cccs1,"inconclusive [activator, partial curve, poor fit]",
COc1ccc(Cn2c(SCC#N)nc3ccc(N4CCOCC4)cc3c2=O)cc1,active: 20.6 µM,
Cc1[nH]nc2c1C(c1ccc(F)cc1)C(C#N)=C(N)O2 (configuration not stated),,inactive: -0.0405%
COc1ccc(-n2c(-c3ccc(Br)cc3)n[nH]c2=S)cc1,,inactive: -3.57%
Cn1c2ccccc2c(=O)c2c(=O)n(-c3ccccc3)c(-c3ccc(C(C)(C)C)cc3)nc21,"inconclusive [activator, partial curve, poor fit]",
COC(=O)[C@H]1C[C@H]2[C@@H]3CC[C@H]4C[C@@H](OC)CC[C@]4(C)[C@H]3CC[C@]2(C)[C@@]2(CCCO2)O1,"inconclusive [activator, partial curve, poor fit]",
COc1ccc2ccccc2c1C(=O)/C=C\c1ccoc1,"inconclusive [activator, single point]",
COc1ccccc1N(CC(O)CN1CCOCC1)S(=O)(=O)c1ccccc1 (configuration not stated),"inconclusive [activator, single point]",
COc1ccc([C@H]2CC(=O)C=C(c3cccc(C(C)C)c3)C2)cc1,"inconclusive [activator, single point]",
Cc1c(Cl)cccc1NC(=S)NCCc1ccc(C(F)(F)F)cc1,"inconclusive [activator, partial curve, poor fit]",
CC(C)(C)[C@H]1C=C(C(=O)O)O[C@@H](OCc2ccc(CO)cc2)C1,,inactive: -2.37%
COc1ccc(OCCC(=O)NCc2ccccc2)cc1,,inactive: -0.406%
O=C(N[C@@H]1c2ccccc2CC[C@@H]1OCc1ccccc1)c1ccc(-c2ccccc2)cc1,"inconclusive [activator, single point]",
CN1CCC(=C2c3ccccc3C=Cc3ccccc32)CC1,"inconclusive [activator, single point]",
Cc1nonc1C(=O)N/N=C/c1ccc(O)cc1O,"inconclusive [activator, partial curve]",
CCOC(=O)c1c(C)[nH]c(C)c1C(=O)CSc1nc2ccccc2n1CCC#N,,inactive: -8.01%
C=CCNCC#CCOc1ccc(OC)cc1,"inconclusive [activator, partial curve, poor fit]",
Cc1nnc(C)c2c(C)n(C(c3ccccc3)c3ccccc3)c(C)c12,"inconclusive [activator, partial curve, poor fit]",
CCOc1ccc2c(c1)C(C)=CC(C)(C)N2C(=O)Nc1ccccc1F,"inconclusive [activator, single point]",
Cc1nccc(-c2cc(-c3ccc(Cl)cc3Cl)no2)n1,,inactive: -4.29%
COc1ccccc1C(=O)NC(=O)OCCn1c(C)cnc1[N+](=O)[O-],"inconclusive [activator, partial curve, poor fit]",

SMILES,Potency,"activity, positive = re-replication"
O=C(/C=C/c1ccccc1)NCCC1=CCCCC1,"inconclusive [activator, full curve, poor fit]",
Cc1ccc(O)c(Sc2cc(C)ccc2O)c1,"inconclusive [activator, partial curve, poor fit]",
O=C(CCCC(=O)OCC(=O)c1ccc(Cl)cc1)NC1CCCCC1,,inactive: 2.31%
O=C(c1c(Cl)nc2sccn12)N1CCN(c2cccc(Cl)c2)CC1,active: 4.11 µM,
CCn1c(SCc2ccccc2Cl)nc2nc3c(cc2c1=O)CCCC3,active: 18.4 µM,
NS(=O)(=O)c1ccc(N=Nc2ccc(O)c3ncccc23)cc1,"inconclusive [activator, single point]",
CN(C)c1ccc(/C=C/C(=O)c2ccc(O)cc2)cc1,"inconclusive [activator, single point]",
Cc1nc(C(=O)NCc2ccccc2)sc1C1(C)CC(c2ccccc2)=NO1 (configuration not stated),"inconclusive [activator, partial curve, poor fit]",
COc1ccccc1N1CCN(C(=O)C2c3ccccc3Oc3ccccc32)CC1,active: 1.84 µM,
CCc1ccc2[nH]c(=O)c(C3C(C#N)=C(N)Oc4c3ccc3cccnc43)cc2c1 (configuration not stated),"inconclusive [activator, partial curve, poor fit]",
CSc1cccc(NC(=O)Nc2ccccc2C(N)=O)c1,,inactive: 2.56%
O=C(Cc1ccccc1C(=O)O)Nc1cccc2ccccc12,,inactive: 0.228%
O=C(c1ccc([N+](=O)[O-])o1)N(Cc1nnc(-c2ccccc2Cl)o1)C1CC1,"inconclusive [activator, single point]",
COc1ccc(-c2cnc(N)n2C)cc1,"inconclusive [activator, full curve, poor fit]",
Cc1ccc(C(=O)c2cc([N+](=O)[O-])ccc2N2CCOCC2)cc1,active: 3.66 µM,
O=C(C1CC1)N1N=C(c2ccc(Cl)cc2)CC1(O)C(F)(F)F (configuration not stated),"inconclusive [activator, single point]",
Cc1nn(-c2ccccc2)c(C)c1NC(=O)COc1ccc(Cl)cc1Cl,"inconclusive [activator, full curve, poor fit]",
Cc1cccc(OCC(=O)OC(C)CN2CCCCC2)c1 (configuration not stated),"inconclusive [activator, single point]",
O=C(Nc1cccc(C(=O)O)c1)/C(=C\c1ccc2c(c1)OCO2)NC(=O)c1ccco1,active: 0.58 µM,
Cc1ccc(S(=O)(=O)NC(=NC(C)C)c2ccccc2)cc1,active: 0.517 µM,
COc1ccc(-c2ccc3c(c2)C2CC3CCN2C(=O)C2CCCCC2)cc1 (configuration not stated),"inconclusive [activator, full curve, poor fit]",
COc1ccc(C(=O)O/N=C(\C)c2cnccn2)cc1,"inconclusive [activator, partial curve, poor fit]",
Cc1nn(CCOc2cccc(Br)c2)c(C)c1[N+](=O)[O-],"inconclusive [activator, partial curve, poor fit]",

SMILES,Potency,"activity, positive = re-replication"
O=C(NNC(=O)c1ccccc1-c1ccccc1C(=O)O)c1ccccc1,,inactive: 2.35%
CCOC(=O)C1=C(C)OC(N)=C(C#N)C1c1ccsc1 (configuration not stated),,inactive: 14.4%
O=C(Cn1nnc(-c2ccccc2NC(=O)c2ccco2)n1)Nc1ccccc1,"inconclusive [activator, partial curve, poor fit]",
COc1ccccc1NS(=O)(=O)c1cccc(NC(=O)c2cncc(Br)c2)c1,"inconclusive [activator, partial curve, poor fit]",
Cc1nc2cc(-c3sccc3-n3cccc3)nn2c(C)c1C,"inconclusive [activator, partial curve, poor fit]",
O=C(Nc1nc2ccccc2[nH]1)c1ccc(Br)o1,"inconclusive [activator, single point]",
COc1ccc(C(CNC(=O)c2cccc(S(=O)(=O)NCc3ccccc3)c2)N(C)C)cc1 (configuration not stated),,inactive: -9.07%
Cc1ccc(-c2nc3cc(N)ccc3o2)cc1,"inconclusive [activator, partial curve, poor fit]",
O=C(CCNS(=O)(=O)c1cccc2nonc12)NCCc1ccc(Cl)cc1,,inactive: 0.438%
CCCCCn1c(CN2CCN(c3cc(Cl)ccc3C)CC2)nc2c1c(=O)[nH]c(=O)n2C,"inconclusive [activator, full curve]",
CCS(=O)(=O)N1CCCC(C(=O)NCCc2ccc(OC)c(OC)c2)C1 (configuration not stated),"inconclusive [activator, partial curve, poor fit]",
CN(C)S(=O)(=O)c1ccc(NC(=O)C2CC(=O)N(Cc3ccccc3)C2)cc1 (configuration not stated),,inactive: 11.1%
Cc1ccc(CN2CCN(CC(=O)NC(C)c3ccc4c(c3)OCCO4)C2=O)cc1 (configuration not stated),,inactive: 2.71%
COC(=O)c1c(N)sc2c1CC(C)(C)OC2,"inconclusive [activator, single point]",
COc1ccc(N(C(=O)COc2ccccc2OC)S(=O)(=O)c2ccc(C)cc2)cc1,"inconclusive [activator, partial curve, poor fit]",
O=[N+]([O-])c1cc(S(=O)(=O)Nc2cccc(Cl)c2)ccc1N=Nc1c(O)[nH]c2ccccc12,"inconclusive [activator, single point]",
Cc1ccc(N=C2S/C(=C/c3cccc(OCC(=O)O)c3)C(=O)N2C)cc1C,"inconclusive [activator, single point]",
O=C(CSc1c2c(nc3ccc(Cl)cc13)CCCC2)N1CCN(C(=O)c2ccco2)CC1,"inconclusive [activator, single point]",
CC(C)c1ccc(NC(=S)NNC(=O)c2cccs2)cc1,"inconclusive [activator, single point]",
COC(=O)c1ccccc1NC(=O)CN1CCC(n2nnc3cc(C(F)(F)F)ccc32)CC1,"inconclusive [activator, partial curve, poor fit]",
COc1ccc(N2CCN(C(=O)CSc3nc4c(c(=O)n(C)c(=O)n4C)n3C(C)C)CC2)cc1,"inconclusive [activator, single point]",

# Source: PubChem BioAssay AID624296 (National Center for Advancing Translational Sciences (NCATS), 2012)
